# Measured values as given in the supplement of paper PMC8728848.
# The other results are listed elsewhere or left out.
# B1: Epa3to1 (Candida glabrata) (protein)
# chain: MGSSHHHHHHSSGLVPRGSHMKRELSSQNPFGYPIGCSPQDVAIIPGLTMELYSYPIVSGTPPNCYDASYVDPEYPRTGYLKRKMVGKSTGVTGNLNYKYSVEKACMVKYGNLPAGYNYNEPLTVSNFTMILYGYFKAQTTGLHTFFVNADDLLYINFGAGNAFDCCKREDSKTKLGEYVAYDIWHVDSSKNKVSLFLEKDLYYPIRMFFNNREYDSSLDLSFSVNGATDQISDFSGYLYSVPDQPDTCPAHIGYDTTCR
# Key:
# Experiment in all cases: glycan array binding signal (z-score within array); higher = stronger binding
# Details in all cases: glycan notation: IUPAC condensed, linker removed
# [1] = target: Fuc(a1-2)Gal(b1-4)[Fuc(a1-3)]GlcNAc(b1-2)Man(a1-3)[Fuc(a1-2)Gal(b1-4)[Fuc(a1-3)]GlcNAc(b1-2)Man(a1-6)]Man(b1-4)GlcNAc(b1-4)[Fuc(a1-6)]GlcNAc
# Summary of the method: (§1)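 Arrays were curated from the Consortium for Functional Glycomics database, 3228 in total, and kept only where the protein sequence was available. Binding is expressed as a within-array Z-score. This score was averaged across arrays of the same protein sequence at different concentrations or buffers and across linkers, and negative values can be read as non-binding.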
# [2] = target: Fuc(a1-2)Gal(b1-4)[Fuc(a1-3)]GlcNAc(b1-2)[Fuc(a1-2)Gal(b1-4)[Fuc(a1-3)]GlcNAc(b1-4)]Man(a1-3)[Fuc(a1-2)Gal(b1-4)[Fuc(a1-3)]GlcNAc(b1-2)Man(a1-6)]Man(b1-4)GlcNAc(b1-4)GlcNAc
# Summary of the method: as §1
# [3] = target: Fuc(a1-2)Gal(b1-4)[Fuc(a1-3)]GlcNAc(b1-3)Gal(b1-4)[Fuc(a1-3)]GlcNAc
# Summary of the method: as §1
# [4] = target: Fuc(a1-2)Gal(b1-4)[Fuc(a1-3)]GlcNAc(b1-3)Gal(b1-4)[Fuc(a1-3)]GlcNAc(b1-3)Gal(b1-4)[Fuc(a1-3)]GlcNAc
# Summary of the method: as §1
# [5] = target: Fuc(a1-2)Gal(b1-4)[Fuc(a1-3)]GlcNAc(b1-3)GalNAc
# Summary of the method: as §1
# [6] = target: Fuc(a1-2)Gal(b1-4)[Fuc(a1-3)]GlcNAc(b1-3)[Neu5Ac(a2-6)Gal(b1-4)GlcNAc(b1-6)]Gal(b1-4)Glc
# Summary of the method: as §1
# [7] = target: Fuc(a1-2)Gal3S(b1-4)GlcNAc
# Summary of the method: as §1
# [8] = target: Fuc(a1-2)Gal6S(b1-3)GlcNAc
# Summary of the method: as §1
# [9] = target: Fuc(a1-2)Gal6S(b1-3)GlcNAc6S
# Summary of the method: as §1
# Fuc(a1-2)Gal6S(b1-4)Glc = target: Fuc(a1-2)Gal6S(b1-4)Glc
# Summary of the method: as §1
# [10] = target: Fuc(a1-2)Gal6S(b1-4)Glc6S
# Summary of the method: as §1
# Fuc(a1-2)[Gal(a1-3)]Gal = target: Fuc(a1-2)[Gal(a1-3)]Gal
# Summary of the method: as §1
# [11] = target: Fuc(a1-2)[Gal(a1-3)]Gal(b1-3)GalNAc
# Summary of the method: as §1
# [12] = target: Fuc(a1-2)[Gal(a1-3)]Gal(b1-3)GalNAc(b1-3)Gal(a1-4)Gal(b1-4)Glc
# Summary of the method: as §1
# [13] = target: Fuc(a1-2)[Gal(a1-3)]Gal(b1-3)GlcNAc
# Summary of the method: as §1
# [14] = target: Fuc(a1-2)[Gal(a1-3)]Gal(b1-3)GlcNAc(b1-2)Man(a1-3)[Fuc(a1-2)[Gal(a1-3)]Gal(b1-3)GlcNAc(b1-2)Man(a1-6)]Man(b1-4)GlcNAc(b1-4)GlcNAc
# Summary of the method: as §1
# [15] = target: Fuc(a1-2)[Gal(a1-3)]Gal(b1-3)GlcNAc(b1-2)Man(a1-3)[Fuc(a1-2)[Gal(a1-3)]Gal(b1-3)GlcNAc(b1-2)Man(a1-6)]Man(b1-4)GlcNAc(b1-4)[Fuc(a1-6)]GlcNAc
# Summary of the method: as §1
# [16] = target: Fuc(a1-2)[Gal(a1-3)]Gal(b1-3)GlcNAc(b1-3)GalNAc
# Summary of the method: as §1
# [17] = target: Fuc(a1-2)[Gal(a1-3)]Gal(b1-3)GlcNAc(b1-6)GalNAc
# Summary of the method: as §1
# [18] = target: Fuc(a1-2)[Gal(a1-3)]Gal(b1-4)Glc
# Summary of the method: as §1
# [19] = target: Fuc(a1-2)[Gal(a1-3)]Gal(b1-4)GlcNAc
# Summary of the method: as §1
# [20] = target: Fuc(a1-2)[Gal(a1-3)]Gal(b1-4)GlcNAc(b1-2)Man
# Summary of the method: as §1
# [21] = target: Fuc(a1-2)[Gal(a1-3)]Gal(b1-4)GlcNAc(b1-2)Man(a1-3)[Fuc(a1-2)[Gal(a1-3)]Gal(b1-4)GlcNAc(b1-2)Man(a1-6)]Man(b1-4)GlcNAc(b1-4)GlcNAc
# Summary of the method: as §1
# [22] = target: Fuc(a1-2)[Gal(a1-3)]Gal(b1-4)GlcNAc(b1-2)Man(a1-3)[Fuc(a1-2)[Gal(a1-3)]Gal(b1-4)GlcNAc(b1-2)Man(a1-6)]Man(b1-4)GlcNAc(b1-4)[Fuc(a1-6)]GlcNAc
# Summary of the method: as §1
# [23] = target: Fuc(a1-2)[Gal(a1-3)]Gal(b1-4)GlcNAc(b1-3)GalNAc
# Summary of the method: as §1
# [24] = target: Fuc(a1-2)[Gal(a1-3)]Gal(b1-4)GlcNAc(b1-3)[Fuc(a1-2)[Gal(a1-3)]Gal(b1-4)GlcNAc(b1-6)]GalNAc
# Summary of the method: as §1
# [25] = target: Fuc(a1-2)[Gal(a1-3)]Gal(b1-4)GlcNAc(b1-6)GalNAc
# Summary of the method: as §1
# [26] = target: Fuc(a1-2)[Gal(a1-3)]Gal(b1-4)[Fuc(a1-3)]Glc
# Summary of the method: as §1
# [27] = target: Fuc(a1-2)[Gal(a1-3)]Gal(b1-4)[Fuc(a1-3)]GlcNAc
# Summary of the method: as §1
# [28] = target: Fuc(a1-2)[Gal(a1-3)]Gal(b1-4)[Fuc(a1-3)]GlcNAc(b1-3)GalNAc
# Summary of the method: as §1
# [29] = target: Fuc(a1-2)[Gal(a1-4)]Gal(b1-4)GlcNAc
# Summary of the method: as §1
# [30] = target: Fuc(a1-2)[GalNAc(a1-3)]Gal
# Summary of the method: as §1
# [31] = target: Fuc(a1-2)[GalNAc(a1-3)]Gal(b1-3)GalNAc(a1-3)[Fuc(a1-2)]Gal(b1-4)GlcNAc
# Summary of the method: as §1
# [32] = target: Fuc(a1-2)[GalNAc(a1-3)]Gal(b1-3)GalNAc(b1-3)Gal(a1-4)Gal(b1-4)Glc
# Summary of the method: as §1
# [33] = target: Fuc(a1-2)[GalNAc(a1-3)]Gal(b1-3)GlcNAc
# Summary of the method: as §1
# [34] = target: Fuc(a1-2)[GalNAc(a1-3)]Gal(b1-3)GlcNAc(b1-2)Man(a1-3)[Fuc(a1-2)[GalNAc(a1-3)]Gal(b1-3)GlcNAc(b1-2)Man(a1-6)]Man(b1-4)GlcNAc(b1-4)GlcNAc
# Summary of the method: as §1
# [35] = target: Fuc(a1-2)[GalNAc(a1-3)]Gal(b1-3)GlcNAc(b1-2)Man(a1-3)[Fuc(a1-2)[GalNAc(a1-3)]Gal(b1-3)GlcNAc(b1-2)Man(a1-6)]Man(b1-4)GlcNAc(b1-4)[Fuc(a1-6)]GlcNAc
# Summary of the method: as §1
# [36] = target: Fuc(a1-2)[GalNAc(a1-3)]Gal(b1-3)GlcNAc(b1-3)GalNAc
# Summary of the method: as §1
binder,measurement,setting,value
B1,glycan array binding signal (z-score),[1],-0.215
same,glycan array binding signal (z-score),[2],-0.249
same,glycan array binding signal (z-score),[3],-0.316
same,glycan array binding signal (z-score),[4],-0.831
same,glycan array binding signal (z-score),[5],-0.026
same,glycan array binding signal (z-score),[6],-0.117
same,glycan array binding signal (z-score),[7],0.738
same,glycan array binding signal (z-score),[8],-0.442
same,glycan array binding signal (z-score),[9],2.17
same,glycan array binding signal (z-score),Fuc(a1-2)Gal6S(b1-4)Glc,0.072
same,glycan array binding signal (z-score),[10],-0.264
same,glycan array binding signal (z-score),Fuc(a1-2)[Gal(a1-3)]Gal,-0.348
same,glycan array binding signal (z-score),[11],-0.029
same,glycan array binding signal (z-score),[12],1.05
same,glycan array binding signal (z-score),[13],0.21
same,glycan array binding signal (z-score),[14],-0.309
same,glycan array binding signal (z-score),[15],0.896
same,glycan array binding signal (z-score),[16],-0.274
same,glycan array binding signal (z-score),[17],-0.375
same,glycan array binding signal (z-score),[18],-0.166
same,glycan array binding signal (z-score),[19],0.041
same,glycan array binding signal (z-score),[20],-0.369
same,glycan array binding signal (z-score),[21],0.414
same,glycan array binding signal (z-score),[22],-0.323
same,glycan array binding signal (z-score),[23],-0.567
same,glycan array binding signal (z-score),[24],0.764
same,glycan array binding signal (z-score),[25],-0.462
same,glycan array binding signal (z-score),[26],-0.606
same,glycan array binding signal (z-score),[27],-0.091
same,glycan array binding signal (z-score),[28],0.18
same,glycan array binding signal (z-score),[29],1.77
same,glycan array binding signal (z-score),[30],-0.553
same,glycan array binding signal (z-score),[31],-0.413
same,glycan array binding signal (z-score),[32],0.761
same,glycan array binding signal (z-score),[33],0.225
same,glycan array binding signal (z-score),[34],-0.245
same,glycan array binding signal (z-score),[35],-0.204
same,glycan array binding signal (z-score),[36],-0.382
